Measurements from PubChem BioAssay AID624417 (National Center for Advancing Translational Sciences (NCATS), 2012).
“And” between values parts separate entries of the source, which are not always exact repeats. Equal values may be shown once. Out of some 410,000 compounds screened, about 6,400 (1.6%) were called active. Inconclusive means that the source gave no clear call. Such entries were picked first, then a sample of the others. The call rests on the fitted dose curve; in most records, active means well fitted inhibition curve with a large enough effect; inconclusive means small, poorly fitted or top-dose-only effect; inactive means no such curve, though single readings can be large or run the other way. Potencies beside an inconclusive call are fits to weak or partial responses and may not hold up.

target: Glucagon-like peptide 1 receptor (Homo sapiens) (UniProt P43220); assay: qHTS of GLP-1 Receptor Inverse Agonists (Inhibition Mode); details: HEK293 GLP-1R CRE-luciferase, luminescence, 24 h, GLP-1R form is constitutively active; series mostly up to 38.3 µM; further: nearly all actives have a fitted effect of over 55% in size
Summary of the method: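 Cells are plated, allowed 12 hours at 37 deg C, then treated with compounds for 24 hr before luciferase detection reagent is added and luminescence is read after 12 min at room temperature. The HEK293 line carries constitutively active GLP-1R with a cAMP-responsive reporter.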
Potency means the concentration at half of the fitted maximal effect; tags describe the fitted curve by direction and shape.

Sequence of UniProt P43220 (P43220 whole entry, looked up): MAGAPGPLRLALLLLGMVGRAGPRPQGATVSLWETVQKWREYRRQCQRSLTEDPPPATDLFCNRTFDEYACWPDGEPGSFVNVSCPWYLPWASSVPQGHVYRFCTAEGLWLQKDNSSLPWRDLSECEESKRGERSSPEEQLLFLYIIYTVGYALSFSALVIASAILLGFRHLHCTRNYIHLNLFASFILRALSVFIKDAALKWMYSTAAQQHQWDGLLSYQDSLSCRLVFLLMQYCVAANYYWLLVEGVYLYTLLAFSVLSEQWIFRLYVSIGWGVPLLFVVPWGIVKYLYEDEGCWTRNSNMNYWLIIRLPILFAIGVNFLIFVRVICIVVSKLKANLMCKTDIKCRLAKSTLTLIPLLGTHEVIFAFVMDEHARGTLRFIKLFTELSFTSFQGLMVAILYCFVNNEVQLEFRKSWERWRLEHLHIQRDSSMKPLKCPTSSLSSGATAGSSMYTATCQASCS

Potency, inconclusive:
CCOC(=O)C1=C(N2CCCCC2)c2cc3c(n2C1=O)CCCC3 17.8 µM [inhibitor, partial curve, poor fit]
Cc1ccc(C)c(-n2cc(-c3ccccc3)nc2SCC(=O)Nc2ccccc2)c1 28.2 µM [inhibitor, single point]
COC(=O)C1=CN(c2cc(C)cc(C)c2)C=C(C(=O)OC)C1c1ccc(OC)c(O)c1 12.6 µM [inhibitor, partial curve, poor fit]
O=C(Nc1ccc(N2CCN(C(=O)c3ccco3)CC2)cc1)c1cc(Br)ccc1Cl 5.01 µM [inhibitor, partial curve]
COc1cc(C(C)=O)ccc1OCC(O)CN1CCN(c2c(C)cccc2C)CC1 (configuration not stated) 6.31 µM [inhibitor, partial curve]
CSc1ccc(CN2CCC(Oc3cccc(C(=O)N4CCCC4)c3)CC2)cc1 11.2 µM [inhibitor, partial curve, poor fit]
COc1ccc(C(=O)NCCNc2ccccc2[N+](=O)[O-])cc1 12.6 µM [inhibitor, single point]
O=C(CN1CCN(S(=O)(=O)c2ccc(F)cc2)CC1)Nc1ccc2c(c1)OCCO2 7.94 µM [inhibitor, partial curve, poor fit]
O=C(CCSCc1ccc(Cl)cc1)NCCC1=CCCCC1 10 µM [inhibitor, partial curve, poor fit]
COc1ccc(CNC(=O)c2ccc(CSc3nc4ccncc4n3Cc3ccccc3F)cc2)cc1 20 µM [inhibitor, partial curve, poor fit]
Cc1cc(C)c(C)c(OCC(=O)NCCN(C)C)c1 28.2 µM [inhibitor, single point]
Cc1nn(-c2ccccc2)cc1/C=N/NC(N)=S 28.2 µM [inhibitor, single point]
CCOc1ccc(Nc2nc(N3CCOCC3)nc(N3CCOCC3)n2)cc1 12.6 µM [inhibitor, partial curve, poor fit]
CNc1nc(Nc2ccc(C)cc2C)c2sccc2n1 14.1 µM [inhibitor, single point]
CC1=NN(C(=O)Cc2ccc([N+](=O)[O-])cc2)C(O)(C(F)(F)C(F)(F)F)C1 (configuration not stated) 1.12 µM [inhibitor, full curve, poor fit]
Cc1ccc(C(=O)n2c(-c3ccccc3)cnc2SCC(=O)Nc2ccc(C)cc2C)cc1 8.91 µM [inhibitor, partial curve, poor fit]
CCN(CC)S(=O)(=O)c1ccc(C)c(NC(=S)Nc2cccc(S(=O)(=O)N3CCCCCC3)c2)c1 14.1 µM [inhibitor, single point]
CCCOC(=O)Cn1cnc2scc(-c3ccc(C)cc3)c2c1=O 8.91 µM [inhibitor, single point]
CC1=CC(C)(C)NC(=S)N1c1cccc(C)c1 11.2 µM [inhibitor, partial curve, poor fit] and 28.2 µM [inhibitor, single point]
CCOc1cc(C)c(S(=O)(=O)NC2CCCCC2)cc1C 11.2 µM [inhibitor, partial curve, poor fit]
O=[N+]([O-])c1ccc(Nc2nc(N3CCOCC3)nc(N3CCOCC3)n2)cc1 10 µM [inhibitor, partial curve, poor fit]
CC(C)CCN(CC(=O)NCc1ccc(F)cc1)S(=O)(=O)c1ccccc1F 10 µM [inhibitor, partial curve, poor fit]
COc1ccc(NC(=O)C(C)n2nc(-c3cc(C)ccc3C)c3c(c2=O)CCCC3)cc1 (configuration not stated) 14.1 µM [inhibitor, partial curve, poor fit]
CCOC(=O)[C@@H]1[C@H]2COc3ccc(Br)cc3[C@@H]2N2C(=O)N(c3ccc(F)cc3)C(=O)[C@]12C 22.4 µM [inhibitor, single point]
CC(C)(C)C(=O)NCCN1C(=O)S/C(=C\c2ccc([N+](=O)[O-])cc2)C1=O 7.94 µM [inhibitor, partial curve]
Cc1ccc(CN2CCCn3nc(C(=O)NCc4cc(C)ccc4C)cc3C2=O)cc1 10 µM [inhibitor, partial curve, poor fit]
CC(C)(C)C1(O)CC(C(F)(F)F)=NN1C(=O)CCc1ccccc1 (configuration not stated) 17.8 µM [inhibitor, partial curve, poor fit]
CO[C@H]1C=CO[C@@]2(C)Oc3c(C)c(O)c4c(O)c(c(C=NN5CCN(C)CC5)c(O)c4c3C2=O)NC(=O)C(C)=CC=C[C@H](C)[C@H](O)[C@@H](C)[C@@H](O)[C@@H](C)[C@H](OC(C)=O)[C@@H]1C 28.2 µM [inhibitor, single point]
Cc1ccc(C)c(Nc2cc(C(=O)NCCCN(C)C3CCCCC3)c3ccccc3n2)c1 28.2 µM [inhibitor, single point]

Potency, inactive:
CCCCN(C)CCn1c(=S)[nH]c2cc(OCC)c(OCC)cc2c1=O
Cn1c(=O)c2c(ncn2CC(=O)OCC(=O)NNC(=O)c2ccc(Cl)cc2)n(C)c1=O
CCOC(=O)C(=O)Nc1nnc2n1CCS2
Cc1occc1C(=O)NCCCCNC(=O)c1ccoc1C
NS(=O)(=O)c1ccc(CCNC(=O)Cc2ccccc2[N+](=O)[O-])cc1
Cc1cc(N)n(-c2ncnc3scc(-c4ccc(Cl)cc4)c23)n1
COCCNC(=O)CSc1nc2cc3c(cc2c(=O)n1Cc1ccc(C(=O)NCCc2ccc(OC)c(OC)c2)cc1)OCO3
COc1cc(OC)cc(-c2nc(-c3cccs3)no2)c1
